Measured values as given in PMC12561219.
Results are given in words; binding and its absence hold for the method and conditions named. In cells and extracts the contact can be indirect. Some binding calls cover weakened binding; strength is not graded here. For some of these results: Where a sequence is shown, tags or fusion partners need not be part of it.

The chains behind the UniProt entries cited, without tags or fusion partners. Where a name states a change or a piece, a line headed by the entry shows the natural chain unless it says otherwise. Residues count along the entry.
UniProt Q96AM1: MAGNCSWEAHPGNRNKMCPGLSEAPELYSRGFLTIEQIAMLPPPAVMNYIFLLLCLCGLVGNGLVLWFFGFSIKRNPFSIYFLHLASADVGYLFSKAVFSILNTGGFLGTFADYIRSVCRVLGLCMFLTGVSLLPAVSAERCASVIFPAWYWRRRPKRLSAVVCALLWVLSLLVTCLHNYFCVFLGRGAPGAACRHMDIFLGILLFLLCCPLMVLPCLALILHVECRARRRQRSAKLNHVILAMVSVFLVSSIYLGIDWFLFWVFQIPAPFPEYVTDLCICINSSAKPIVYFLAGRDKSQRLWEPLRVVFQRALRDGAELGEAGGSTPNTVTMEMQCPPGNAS
FLAG-MRGPRF (1-181aa): residues 1-181 of Q96AM1
FLAG-MRGPRF (182-343aa): residues 182-343 of Q96AM1

How the values were obtained:
Flag-MRGPRF = Flag-MRGPRF (UniProt Q96AM1); assay: co-IP; lysates of A375 and SK-MEL-2 cells; Dynabeads with anti-Flag-tag or anti-HA-tag antibody, overnight at 4 °C; Western blot
FLAG-MRGPRF (1-181aa) = FLAG-MRGPRF (1-181aa) (UniProt Q96AM1); assay: as above
FLAG-MRGPRF (182-343aa) = FLAG-MRGPRF (182-343aa) (UniProt Q96AM1); assay: as above
MRGPRF-LgBiT = MRGPRF-LgBiT (UniProt Q96AM1); assay: split reporter; SmBiT-LgBiT PPI luciferase assay; melanoma cells transfected with USP45-SmBiT and/or MRGPRF-LgBiT, luciferase activity measured after lysis

B1: HA-USP45 (wildtype USP45) (enzyme, UniProt Q70EL2 1-814)
chain: MRVKDPTKALPEKAKRSKRPTVPHDEDSSDDIAVGLTCQHVSHAISVNHVKRAIAENLWSVCSECLKERRFYDGQLVLTSDIWLCLKCGFQGCGKNSESQHSLKHFKSSRTEPHCIIINLSTWIIWCYECDEKLSTHCNKKVLAQIVDFLQKHASKTQTSAFSRIMKLCEEKCETDEIQKGGKCRNLSVRGITNLGNTCFFNAVMQNLAQTYTLTDLMNEIKESSTKLKIFPSSDSQLDPLVVELSRPGPLTSALFLFLHSMKETEKGPLSPKVLFNQLCQKAPRFKDFQQQDSQELLHYLLDAVRTEETKRIQASILKAFNNPTTKTADDETRKKVKAYGKEGVKMNFIDRIFIGELTSTVMCEECANISTVKDPFIDISLPIIEERVSKPLLWGRMNKYRSLRETDHDRYSGNVTIENIHQPRAAKKHSSSKDKSQLIHDRKCIRKLSSGETVTYQKNENLEMNGDSLMFASLMNSESRLNESPTDDSEKEASHSESNVDADSEPSESESASKQTGLFRSSSGSGVQPDGPLYPLSAGKLLYTKETDSGDKEMAEAISELRLSSTVTGDQDFDRENQPLNISNNLCFLEGKHLRSYSPQNAFQTLSQSYITTSKECSIQSCLYQFTSMELLMGNNKLLCENCTKNKQKYQEETSFAEKKVEGVYTNARKQLLISAVPAVLILHLKRFHQAGLSLRKVNRHVDFPLMLDLAPFCSATCKNASVGDKVLYGLYGIVEHSGSMREGHYTAYVKVRTPSRKLSEHNTKKKNVPGLKAADNESAGQWVHVSDTYLQVVPESRALSAQAYLLFYERVL
For B1, the binding (Flag-MRGPRF) was “binds”, the binding (FLAG-MRGPRF (1-181aa)) was “binds” and the binding (FLAG-MRGPRF (182-343aa)) was “no binding”.

B2: USP45-SmBiT (enzyme, UniProt Q70EL2 1-814)
chain: B1 chain
For B2, the binding (MRGPRF-LgBiT) was “binds”.

B3: HA-USP45 (61-814aa) (domain or fragment, UniProt Q70EL2 61-814)
chain: VCSECLKERRFYDGQLVLTSDIWLCLKCGFQGCGKNSESQHSLKHFKSSRTEPHCIIINLSTWIIWCYECDEKLSTHCNKKVLAQIVDFLQKHASKTQTSAFSRIMKLCEEKCETDEIQKGGKCRNLSVRGITNLGNTCFFNAVMQNLAQTYTLTDLMNEIKESSTKLKIFPSSDSQLDPLVVELSRPGPLTSALFLFLHSMKETEKGPLSPKVLFNQLCQKAPRFKDFQQQDSQELLHYLLDAVRTEETKRIQASILKAFNNPTTKTADDETRKKVKAYGKEGVKMNFIDRIFIGELTSTVMCEECANISTVKDPFIDISLPIIEERVSKPLLWGRMNKYRSLRETDHDRYSGNVTIENIHQPRAAKKHSSSKDKSQLIHDRKCIRKLSSGETVTYQKNENLEMNGDSLMFASLMNSESRLNESPTDDSEKEASHSESNVDADSEPSESESASKQTGLFRSSSGSGVQPDGPLYPLSAGKLLYTKETDSGDKEMAEAISELRLSSTVTGDQDFDRENQPLNISNNLCFLEGKHLRSYSPQNAFQTLSQSYITTSKECSIQSCLYQFTSMELLMGNNKLLCENCTKNKQKYQEETSFAEKKVEGVYTNARKQLLISAVPAVLILHLKRFHQAGLSLRKVNRHVDFPLMLDLAPFCSATCKNASVGDKVLYGLYGIVEHSGSMREGHYTAYVKVRTPSRKLSEHNTKKKNVPGLKAADNESAGQWVHVSDTYLQVVPESRALSAQAYLLFYERVL
With B3 the binding (Flag-MRGPRF) was “binds”.

B4: HA-USP45 (190-814aa) (domain or fragment, UniProt Q70EL2 190-814)
chain: RGITNLGNTCFFNAVMQNLAQTYTLTDLMNEIKESSTKLKIFPSSDSQLDPLVVELSRPGPLTSALFLFLHSMKETEKGPLSPKVLFNQLCQKAPRFKDFQQQDSQELLHYLLDAVRTEETKRIQASILKAFNNPTTKTADDETRKKVKAYGKEGVKMNFIDRIFIGELTSTVMCEECANISTVKDPFIDISLPIIEERVSKPLLWGRMNKYRSLRETDHDRYSGNVTIENIHQPRAAKKHSSSKDKSQLIHDRKCIRKLSSGETVTYQKNENLEMNGDSLMFASLMNSESRLNESPTDDSEKEASHSESNVDADSEPSESESASKQTGLFRSSSGSGVQPDGPLYPLSAGKLLYTKETDSGDKEMAEAISELRLSSTVTGDQDFDRENQPLNISNNLCFLEGKHLRSYSPQNAFQTLSQSYITTSKECSIQSCLYQFTSMELLMGNNKLLCENCTKNKQKYQEETSFAEKKVEGVYTNARKQLLISAVPAVLILHLKRFHQAGLSLRKVNRHVDFPLMLDLAPFCSATCKNASVGDKVLYGLYGIVEHSGSMREGHYTAYVKVRTPSRKLSEHNTKKKNVPGLKAADNESAGQWVHVSDTYLQVVPESRALSAQAYLLFYERVL
In the case of B4, the binding (Flag-MRGPRF) is reported as “binds”.

B5: HA-USP45 (1-170 aa) (domain or fragment, UniProt Q70EL2 1-170)
chain: MRVKDPTKALPEKAKRSKRPTVPHDEDSSDDIAVGLTCQHVSHAISVNHVKRAIAENLWSVCSECLKERRFYDGQLVLTSDIWLCLKCGFQGCGKNSESQHSLKHFKSSRTEPHCIIINLSTWIIWCYECDEKLSTHCNKKVLAQIVDFLQKHASKTQTSAFSRIMKLCE
In the case of B5, the binding (Flag-MRGPRF) is reported as “no binding”.
